Data reported in the supplement of paper PMC3334620.
Over roughly 33,000 sequences, “E-score (-0.5 to 0.5)” has its median near -0.054; the highest 2% begin near 0.35. Some of the results follow.

biological target: T1, Stb5 (UniProt P38699); assay: PBM E-score (8-mer binding enrichment) (E-score (-0.5 to 0.5)); higher = stronger / more preferred TF binding; most listed sequences are background and not binding sites; details: protein concentration: 200 nM; construct: GST-full length
T1 sequence: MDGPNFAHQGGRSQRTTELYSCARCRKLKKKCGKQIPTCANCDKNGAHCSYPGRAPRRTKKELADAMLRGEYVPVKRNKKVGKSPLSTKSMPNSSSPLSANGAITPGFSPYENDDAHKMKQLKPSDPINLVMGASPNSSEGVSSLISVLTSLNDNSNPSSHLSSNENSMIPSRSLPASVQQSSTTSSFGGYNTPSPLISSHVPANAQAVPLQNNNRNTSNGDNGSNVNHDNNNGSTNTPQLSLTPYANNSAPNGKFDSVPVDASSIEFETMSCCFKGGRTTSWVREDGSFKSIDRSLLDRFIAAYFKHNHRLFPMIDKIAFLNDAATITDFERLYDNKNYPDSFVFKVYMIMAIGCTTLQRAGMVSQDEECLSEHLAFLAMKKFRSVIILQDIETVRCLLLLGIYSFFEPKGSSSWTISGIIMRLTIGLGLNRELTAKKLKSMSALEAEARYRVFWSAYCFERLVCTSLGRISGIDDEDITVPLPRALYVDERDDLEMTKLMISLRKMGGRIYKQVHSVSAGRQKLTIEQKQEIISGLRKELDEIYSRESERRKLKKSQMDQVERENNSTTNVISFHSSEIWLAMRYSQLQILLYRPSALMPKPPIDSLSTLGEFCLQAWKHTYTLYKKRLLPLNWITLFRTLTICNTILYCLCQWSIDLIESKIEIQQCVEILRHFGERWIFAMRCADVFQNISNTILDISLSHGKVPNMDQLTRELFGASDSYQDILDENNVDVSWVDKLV
Method in brief: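 Using PURExpress in vitro transcription/translation, GST-tagged yeast transcription factors were made in full-length or DNA-binding-domain form. These were applied at about 100-200 nM to double-stranded universal all-10-mer Agilent arrays, and bound protein was detected with fluorescent anti-GST. Scans were normalised with masliner before the Universal PBM Analysis Suite assigned E-scores to ungapped eight-base words pooled with their reverse complements.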

Row | Sequence | PBM E-score
1 | ATTAGGGC | -0.106
2 | AATATCCC | 0.291
3 | ATTGAACC | 0.0635
4 | CAAATGCG | -0.0783
5 | AACGTCAG | -0.286
6 | CATCGTTC | -0.0976
7 | AGCCGCAC | 0.152
8 | AACGCTGT | 0.129
9 | GGTGTCAA | 0.225
10 | GAACTTCA | -0.157
11 | GAGATAGC | -0.0635
12 | AGTGCCGA | 0.387
13 | CCCGCTAG | 0.272
14 | CAGAGTTC | -0.0957
15 | CGCCTCAC | -0.109
16 | GCTAAAAC | 0.146
17 | AGGACGGG | 0.175
18 | TAGCGTAA | -0.0609
19 | CGCCCTTC | -0.00564
20 | CCTGACGA | -0.256
21 | CTAGCCTA | 0.0929
22 | GGTACAAC | -0.0464
23 | CTCTGCGC | -0.116
24 | AGTATTGC | -0.0296
25 | CCAGGCAC | -0.0587

Row | Sequence | PBM E-score
26 | CCCTCTCG | -0.0887
27 | CTCATTGC | -0.252
28 | GAATTTCA | -0.15
29 | ATTAGATA | -0.261
30 | AGCCTCCA | -0.0711
31 | CAACCAAC | -0.174
32 | TTCGGAAA | 0.133
33 | AGGGTAAG | -0.0998
34 | AGATGAAT | -0.326
35 | TAAACGCA | 0.058
36 | CCGGACTA | 0.304
37 | TCCCACGA | -0.124
38 | GCTAGGTA | -0.0526
39 | AGGCTTAC | -0.168
40 | AAAAACGT | -0.149
41 | CGGCATAC | 0.232
42 | AAGTTGTG | -0.248
43 | CACACGAC | 0.059
44 | AACAAATA | 0.0288
45 | ATTACACG | 0.00285
46 | GGAGCGAC | 0.0737
47 | GAACTCTA | -0.101
48 | CGTTGGGC | 0.0736
49 | AGGCTGAT | -0.25
50 | GCTCCCCC | 0.0364

Row | Sequence | PBM E-score
51 | CCAAAAAA | -0.0145
52 | ACCACATA | 0.0101
53 | CATACGTA | -0.0461
54 | GTGATCTA | -0.191
55 | ACGCATCG | -0.0578
56 | GAACGTAC | -0.177
57 | CTCTTTAA | -0.103
58 | ATAACTCA | -0.0636
59 | TCAATTAA | -0.0317
60 | ACTCTTGA | -0.176
61 | GGGCATAA | 0.197
62 | TACCTGCA | -0.137
63 | ACCCCGCT | 0.437
64 | CACTCGGA | -0.0784
65 | GATAGATC | 0.111
66 | CCAGTTGA | -0.133
67 | GAGAAAGC | 0.0247
68 | ACTCCTGA | -0.211
69 | AACCACGT | -0.246
70 | AATCATAA | -0.157
71 | TAAGTGCA | -0.0835
72 | ATGTGGTC | -0.168
73 | AGACACTA | -0.101
74 | GATAGGGA | -0.134
75 | ACCCAAAT | -0.135

Row | Sequence | PBM E-score
76 | CCGCTACC | 0.336
77 | ATTCCAAG | -0.153
78 | GGATGCTA | -0.0173
79 | ATGTCCCA | -0.138
80 | CAGCTCGA | -0.292
81 | AAGTTGTC | -0.0935
82 | AGTCGCCG | 0.191
83 | AAAATTCT | 0.0376
84 | GAAATCAC | 0.137
85 | CGGGGATC | 0.168
86 | CTGTTCCC | 0.0484
87 | AGTACACG | -0.0595
88 | GACGCGTA | -0.174
89 | GCTGATTA | -0.0244
90 | AGAAACGG | 0.24
91 | CATACTAC | -0.0614
92 | GGTAACAA | 0.209
93 | CTTAATGC | -0.024
94 | AAACGGTG | 0.316
95 | AAACAATT | -0.225
96 | TACGCCCA | -0.144
97 | CGGTATAG | 0.179
98 | CATCCTTC | -0.0704
99 | CACCGGAG | 0.379
100 | AGGGGAGC | -0.222

Row | Sequence | PBM E-score
101 | ACAAACCC | 0.152
102 | AACAATAT | 0.133
103 | GGACGGCC | 0.188
104 | CTAATTAA | -0.204
105 | CCTTCGCC | 0.122
106 | ATGCTCAC | -0.141
107 | ACATCTCC | 0.0356
108 | ATTCGCGG | 0.171
109 | AAGTCTAA | -0.131
110 | TGTAGAAA | -0.141
111 | TAGGTAAA | 0.0206
112 | CGGGTCGC | 0.219
113 | TCTCATAA | -0.0776
114 | CAATTTAG | -0.193
115 | AGCTTCCC | -0.242
116 | AACCACTT | -0.109
117 | TGCTACAA | 0.0285
118 | CCCCTCAG | -0.107
119 | AACCTGGA | -0.291
120 | CATACAAC | -0.208
121 | CCGGATTC | 0.148
122 | CTCCTACA | -0.171
123 | TAAGATTA | -0.0216
124 | CTCGACGC | -0.0256
125 | CCATCTAC | 0.0456

Row | Sequence | PBM E-score
126 | CCAGATGG | -0.137
127 | CGGAAATC | 0.0555
128 | ACGTTCAC | -0.0597
129 | CTGTACAC | -0.0392
130 | ACTATAGC | 0.162
131 | ACCACCGC | 0.391
132 | CAATTACA | 0.0294
133 | CATAGAGA | -0.281
134 | CCGGACAG | 0.219
135 | CCCGCCTC | 0.207
136 | CCCGGAAG | 0.15
137 | AGACGCTA | -0.137
138 | AATGGCAA | -0.0129
139 | ATATTAGC | 0.123
140 | ATAGCGGC | 0.309
141 | AGGTCACG | -0.111
142 | GGTAGGAC | 0.0845
143 | CCTAGCAC | -0.158
144 | AATGACAC | -0.0205
145 | ATAGGGAA | 0.0562
146 | GGCACTCA | -0.176
147 | ATGGCTCG | -0.214
148 | CAGCATGC | -0.169
149 | TGCGCGCA | -0.13
150 | CTCACTCA | -0.191

Row | Sequence | PBM E-score
151 | ATCCTTCC | -0.143
152 | CGACAAGA | -0.00104
153 | CACCGCTG | 0.405
154 | AGAACTAC | -0.0377
155 | GAAGCCAA | -0.128
156 | ATTAATGC | -0.0156
157 | CGCAAAGA | 0.016
158 | GCTGCTCA | -0.16
159 | ATGGATCG | 0.0726
160 | CACAAGAG | -0.132
161 | GAATGCAC | -0.0135
162 | ACCCGCTC | 0.246
163 | AGGATCAT | -0.23
164 | AATCGCCC | -0.00317
165 | GCGGGGTA | 0.345
166 | AGCCCGGG | 0.189
167 | GTCCTGAA | -0.18
168 | AATCCAGA | -0.156
169 | ATGCGGCG | 0.282
170 | CAGAAGAA | -0.143
171 | AAACTGTT | -0.13
172 | AACTCGTG | -0.141
